Laboratory results taken from publication PMC12136788.
The other results are listed elsewhere or left out.

T1: UNK ZnF1-6 (called full-length) (human, UniProt Q9C0B0 30-357)
T1 sequence: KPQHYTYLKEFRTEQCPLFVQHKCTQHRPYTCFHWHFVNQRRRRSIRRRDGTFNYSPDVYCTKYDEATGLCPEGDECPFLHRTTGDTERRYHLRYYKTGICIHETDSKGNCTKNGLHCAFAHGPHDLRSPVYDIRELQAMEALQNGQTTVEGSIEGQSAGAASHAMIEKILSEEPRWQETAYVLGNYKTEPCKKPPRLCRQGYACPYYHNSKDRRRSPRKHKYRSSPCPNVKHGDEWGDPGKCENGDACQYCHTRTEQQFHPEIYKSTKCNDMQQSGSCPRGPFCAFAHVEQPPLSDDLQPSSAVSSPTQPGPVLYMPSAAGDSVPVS

B1: chr2:218454035:218454136:-|3pUTR|ENSG00000135913|msi1|FALSE|unique (ssRNA)
RNA: GGGAGUUCUACAGUCCGACGAUCGAGAUUUCUUCACACAGUAUGUUCAUCAUAUAUCAUCAUCAUUAUUAUGGUGGUAAAGAUAGAAUCUUUUUUCUUUUUUGUCAUUCUGCCAUGGAGCAGCAUUACCCUAAUGGAUUGCAACAACAGAGGAUUGAGCAUCA
B2: chr5:150401636:150402250:-|three_prime_utr|ENSG00000019582|control|control|control (ssRNA)
RNA: GGGAGUUCUACAGUCCGACGAUCCUGCUGCCCAAUCUCCAUCUGUCAACAGGGGCGUGAGGUCCCAGGAAGUGGCCAAAAGCUAGACAGAUCCCCGUUCCUGACAUCACAGCAGCCUCCAACACAAGGCUCCAAGACCUAGGCCAACAGAGGAUUGAGCAUCA
B3: chr1:109062613:109062715:-|3pUTR|ENSG00000197780|unk|FALSE|unique (ssRNA)
RNA: GGGAGUUCUACAGUCCGACGAUCAGUUCUGAAUACACAGGUUUUGUGUGUAUUUACUCUAUGUAUUAAAUUAUUAUUGCCCUUAGUUUAAAGUAAGGAUUACAAUUGGAUUUAAGUAGAUCACUGAAUGUUAUUGUUUAUGAACAACAGAGGAUUGAGCAUCA
B4: chr3:127036428:127036535:+|3pUTR|ENSG00000114554|msi1|total|mutant (ssRNA)
RNA: GGGAGUUCUACAGUCCGACGAUCGCGUGUGGCUGGGGCGUGGCCACCACAGAGCACAUGGCUGUGUCCCGGCGCAAGCACUUCCGCAGUAUCUGUUUACAUGCGCAAGGAUCAAGCCGACUACCUGUGCUGUCUACUGGGACACAACAGAGGAUUGAGCAUCA
B5: ENSG00000107863:be:win_4401|CDS|ENSG00000107863|bound_else_gene|NA|bound_elsewhere_windowed (ssRNA)
RNA: GGGAGUUCUACAGUCCGACGAUCAAAACAGAAGAUCAUCAUUGCCAAAGAAAACAGCACUAGGAAAGACCCCAGCACGACAAAAGAUGAAAAGAUAUCACUAGGAAAAGAGAGCACGCCUUCUGAAGAACCCUCACCACCACACAACAGAGGAUUGAGCAUCA
B6: chr2:120221238:120221343:-|3pUTR|ENSG00000226479|unk|FALSE|bound_elsewhere (ssRNA)
RNA: GGGAGUUCUACAGUCCGACGAUCAUAUGUUGAAUUCUAGUUCUCUGCAUUACCAUUAUUACGUUAAAGUAUUUUUUAAAGCUUAGGUGUGAAGAUAUGUGUCUAUUGCAGAUGUCCUUGAAAACUGCAUAAAACAGUAUGUGCCAACAGAGGAUUGAGCAUCA
B7: chr18:46811193:46811294:-|3pUTR|ENSG00000078043|unk|total|mutant (ssRNA)
RNA: GGGAGUUCUACAGUCCGACGAUCUUUUUUUUCAUUUUUUUAAAAUGAUAUCUUACCUGAAACUACAAACGACAAAAGAGAAUCCGAAAUGUUUGAAUUAAAGUGAAGAAGGGUUGGGGGAGAUGGGCCUGAACCCACUUCCUGCAACAGAGGAUUGAGCAUCA
B8: ENSG00000087470:stop:overlap|stop_codon|ENSG00000087470|stop_codon|NA|stop_codon (ssRNA)
RNA: GGGAGUUCUACAGUCCGACGAUCAUAUGGCAACAUCAGAGGCACUUAAAAUUUCAAGAGAGGUAGAUCCAGAUGGAGCCAGCUAGAUAUUAACAACAAGAAGAGUGUAACUGAUUCAAUCCGUGAUGAGUAUGCUUUUCUUCACAACAGAGGAUUGAGCAUCA
B9: ENSG00000198589:be:win_7601|CDS|ENSG00000198589|bound_else_gene|NA|bound_elsewhere_windowed (ssRNA)
RNA: GGGAGUUCUACAGUCCGACGAUCUUGCGGUGAACAAAUGGCACAACCUUCCUGCUCAUCAAGGUGCUGUACAAGACCAGCCAUACCAGCUGCCAGUGGAAAUCGAUCCUCUCAUAGCCAGCAAUACAGGAAUGCACAGGAGGCCAACAGAGGAUUGAGCAUCA
B10: chr10:117284474:117284575:-|CDS|ENSG00000165650|msi1|FALSE|bound_elsewhere (ssRNA)
RNA: GGGAGUUCUACAGUCCGACGAUCAUUGCAUUGUGGUGCAGGGAUCCUUUCAAGUUGGGAGGUCUCAUCUGUUUGGGGCAUGUUAGUUUAAAACUUGAAGAUGUGGCUUUAGGAUGCCUAGCUACAUCAAACACGGAAUACCUUCAACAGAGGAUUGAGCAUCA
B11: chr5:38481646:38481747:-|CDS|ENSG00000113594|unk|total|mutant (ssRNA)
RNA: GGGAGUUCUACAGUCCGACGAUCCAGACCUCAGGCCAAUGUAAAUACAUGGAAUUCCGUGUCUCCAGACUCUCCCCGAUCCACCGACAGCAACAGUGAGAUUGUCUCAUUUGGAAGUCCAUGCUCCAUUAAUUCCCGACAAUUCAACAGAGGAUUGAGCAUCA
B12: chr17:35273046:35273147:+|3pUTR|ENSG00000166750|unk|total|mutant (ssRNA)
RNA: GGGAGUUCUACAGUCCGACGAUCAUUCCUAAGAGCAGAAGACUGCAAAACCGUAAAUAUAUACCCAAAAGGGUCUAAUGGAUCCGUUUUUGGCAUAUCAGCACAUGAUAAUACUAUGAAGCCAUAAAAAAGAGAGAUCUCUAUCAACAGAGGAUUGAGCAUCA
B13: chr11:123627604:123627705:+|3pUTR|ENSG00000023171|unk|FALSE|unique (ssRNA)
RNA: GGGAGUUCUACAGUCCGACGAUCAUUUGGAUCUAUAACUGUACUUUGCCUGGCGCUGUGCGCAAGGUCAGAAAACUUACUGCUAGUACCUAGAAACACACAAGGCUGCCCAGCCAAAUCUUAAUGUAAAGUAGCUAGAGCCAUCAACAGAGGAUUGAGCAUCA
B14: chr13:99866285:99866388:+|CDS|ENSG00000125246|unk|FALSE|unique (ssRNA)
RNA: GGGAGUUCUACAGUCCGACGAUCUAUUCUCUACGCCCGGCAAAAGAUUGUUGUCAUAGCGAAAGCCUUUGGUCUCCAAGCCAUAGAUCUGGUGUACAUUGACUUUCGAGAUGGAGCUGGGCUGCUUAGACAGUCACGAGAAGGCAACAGAGGAUUGAGCAUCA

Target: T1, UNK ZnF1-6 (called full-length)
Experiment: nsRBNS (natural sequence RNA bind-n-seq); RBNS binding buffer (assumed for nsRBNS): 25 mM Tris pH 7.5, 150 mM KCl, 3 mM MgCl2, 0.01% Triton X-100, 500 ug/ml BSA, 20 U/ml SUPERase-In, 4 C; UNK is unkempt and MSI1 is Musashi-1; names of the RNAs are library labels; protein concentration not given here; high values mean tight binding

Row | Binder | binding signal
1 | B1 | 0.64 enrichment R
2 | B2 | 0.69 enrichment R
3 | B3 | 1.13 enrichment R
4 | B4 | 0.644 enrichment R
5 | B5 | 0.791 enrichment R
6 | B6 | 0.561 enrichment R
7 | B7 | 0.469 enrichment R
8 | B8 | 0.746 enrichment R
9 | B9 | 0.667 enrichment R
10 | B10 | 0.633 enrichment R
11 | B11 | 0.582 enrichment R
12 | B12 | 0.31 enrichment R
13 | B13 | 1.72 enrichment R
14 | B14 | 0.488 enrichment R
